# Some of the results follow. These are enrichments in a pooled selection; single values are uncertain. Each score is taken over the longer molecules that contain the sequence shown.
# Tested on: IMP3 KH1-2
# Test: 6-mer SELEX enrichment z-score vs GST control; IMP3 is the RNA-binding protein IGF2BP3; higher = more enriched by binding
# Settings: construct: KH1-2 (164-376); SELEX round: R4
# Procedure: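 SELEX-seq with GST-tagged IMP3 KH1-2 (Pro164-Phe376) and an N40 RNA pool, round 4 (stringent 300/600 mM KCl washes). 6-mer z-score of sequence-tag enrichment normalised to the corresponding GST SELEX round; RNA k-mers written as DNA (T for U).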
# IMP3 KH1-2, sequence (chain, as listed by the source): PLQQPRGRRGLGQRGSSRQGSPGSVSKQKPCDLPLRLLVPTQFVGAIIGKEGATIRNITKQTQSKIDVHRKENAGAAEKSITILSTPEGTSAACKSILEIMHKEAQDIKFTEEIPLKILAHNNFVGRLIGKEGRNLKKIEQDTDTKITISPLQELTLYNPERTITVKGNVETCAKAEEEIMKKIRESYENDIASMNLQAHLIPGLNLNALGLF
row,Sequence,6-mer SELEX enrichment z-score
1,GAAGCT,-0.465
2,ACCGAA,-1.49
3,CCAGTC,0.278
4,CGGTTA,-0.108
5,ACTTCC,0.403
6,TTTTTA,0.932
7,AAGCAC,-0.329
8,CTACTC,-0.534
9,TCCTTA,0.683
10,GAGACT,-0.494
11,CACGCC,0.064
12,ATATGA,1.6
13,AGAACT,0.154
14,CAACGT,-1.24
15,TTAGAG,-0.22
16,CTGTCT,-0.014
17,CACCCC,-0.349
18,TTTAGT,0.341
19,TAGCCC,-0.571
20,TTCCGG,0.247

row,Sequence,6-mer SELEX enrichment z-score
1,AAAGTC,-0.51
2,TGGCCT,-0.091
3,TTGAAA,-0.209
4,AGATGG,0.578
5,AGGCTA,0.193
6,CAACGA,-1.8
7,GTTGCA,0.041
8,CGAGAA,-1.3
9,CAATAG,0.834
10,CCGTTA,0.269
11,CAATGA,0.2
12,AAAGCC,-1.52
13,GCCACC,0.283
14,GCACCA,0.388
15,AAGAAG,0.207
16,TCTTCC,0.426
17,TATGCA,0.882
18,ATAAAT,1.9
19,TACTAT,1.12
20,CTGACC,-1.03
